From PubChem BioAssay AID588342 (National Center for Advancing Translational Sciences (NCATS), 2011)
About 25,000 (6.9%) of roughly 360,000 compounds were called active. This list was built around the results that the source calls inconclusive (neither active nor inactive); the mix of calls is not that of the screen. The call rests on the fitted dose curve; in most records, active means well fitted inhibition curve with a large enough effect; inconclusive means small, poorly fitted or top-dose-only effect; inactive means flat fitted curve, though single readings scatter. Potencies beside an inconclusive call are fits to weak or partial responses and may not hold up.

target: Luciferin 4-monooxygenase (Photinus pyralis) (UniProt P08659); assay: qHTS profiling assay for firefly luciferase inhibitor/activator using purifed enzyme and Km concentrations of substrates (counterscreen for miR-21 project); conditions: purified FLuc, luminescence inhibition; series mostly up to 57.5 µM; further: nearly all actives have a fitted effect of over 55% in size
Procedure, shortened: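 Purified P. pyralis luciferase, 10 nM final, with Km-level 10 uM D-luciferin and 10 uM ATP in 50 mM Tris acetate pH 7.5, 10 mM Mg acetate, 0.01% Tween-20, 0.05% BSA; 6-point qHTS titration about 60 µM downward; luminescence read.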
Potency means the concentration at half of the fitted maximal effect; tags describe the fitted curve by direction and shape.

UniProt P08659, sequence (P08659 whole entry, looked up): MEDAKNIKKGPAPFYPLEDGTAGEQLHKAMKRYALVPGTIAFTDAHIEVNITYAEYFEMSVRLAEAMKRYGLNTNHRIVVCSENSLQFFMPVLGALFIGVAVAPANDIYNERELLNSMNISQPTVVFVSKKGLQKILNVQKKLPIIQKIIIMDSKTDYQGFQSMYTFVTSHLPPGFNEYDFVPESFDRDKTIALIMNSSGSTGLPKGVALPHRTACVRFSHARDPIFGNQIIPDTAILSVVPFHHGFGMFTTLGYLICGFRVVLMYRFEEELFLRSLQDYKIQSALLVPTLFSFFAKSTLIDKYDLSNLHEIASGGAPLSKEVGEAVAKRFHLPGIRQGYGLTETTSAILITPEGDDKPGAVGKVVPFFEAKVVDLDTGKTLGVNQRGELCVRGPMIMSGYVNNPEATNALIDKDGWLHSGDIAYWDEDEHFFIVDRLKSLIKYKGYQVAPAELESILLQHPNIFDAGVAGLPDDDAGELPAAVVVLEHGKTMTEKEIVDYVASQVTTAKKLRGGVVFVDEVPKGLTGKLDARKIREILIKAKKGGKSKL

| Compound | Potency |
| --- | --- |
| COc1ccc(-c2noc(CSc3nnc(-c4ccccc4)n3-c3ccc(F)cc3)n2)c(OC)c1 | inconclusive: 37.9 µM [inhibitor, partial curve, poor fit] |
| Cc1ccccc1C(=O)N1CCc2cc(-c3csc(NC(=O)CN4CCCC4)n3)ccc21 | inconclusive: 16.9 µM [inhibitor, partial curve] |
| O=C(Nc1ccc2c(c1)nc1n2CCN(C2CCCCC2)C1)NC1CCCCC1 | inconclusive: 26.9 µM [inhibitor, partial curve, poor fit] |
| Cc1ccc2nc(-c3ccccc3C)oc(=O)c2c1 | active: 6.01 µM |
| O=C(CCCc1ccccc1)N1CCc2ccccc21 | active: 2.13 µM |
| Cc1cccc(-c2nc(CCNC(=O)c3ccccc3Br)cs2)c1 | inconclusive: 37.9 µM [inhibitor, single point] |
| CCc1ccc(CNC(=O)C2CCCN(c3nn4cc(-c5ccc(F)cc5)nc4s3)C2)cc1 (centres undefined) | inconclusive: 15.1 µM [inhibitor, partial curve] |
| O=C(Nc1cc(F)ccc1F)c1ccc2c(c1)nnn2C1CCCC1 | inconclusive: 3.01 µM [inhibitor, partial curve, poor fit] |
| Nn1cnnc1N/N=C/c1cccc(Cl)c1Cl | inconclusive: 23.9 µM [inhibitor, partial curve, poor fit] |
| O/N=C/c1ccc(OCc2ccccc2)c(Br)c1 | active: 7.57 µM |
| COC(=O)c1sccc1S(=O)(=O)N(CC(=O)NCc1ccccc1)c1ccc(C)c(C)c1 | inactive |
| COc1ccccc1CNC(=O)C1CCN(S(C)(=O)=O)CC1 | inactive |
| CSc1nsc(/C=C/Nc2ccc(C)c(C)c2)c1C#N | inconclusive: 4.78 µM [inhibitor, partial curve, poor fit] |
| COCCOc1ccc(C(F)(F)F)cc1Nc1nc2ccccc2o1 | active: 15.1 µM |
| Cc1ccc(-n2c3nc(=O)[nH]c(=O)c-3cc3cc([N+](=O)[O-])ccc32)cc1C | inconclusive: 21.3 µM [inhibitor, partial curve, poor fit] |
| O=C(Nc1noc2ccccc12)c1c(F)cccc1F | active: 7.57 µM |
| CCOc1ccc(N)c(SSc2cc(OCC)ccc2N)c1 | inconclusive: 10.7 µM [inhibitor, partial curve] |
| COc1ccc(-c2cc(-c3ccccc3)nc(-c3ccc4c(c3)NC(=O)CO4)c2)cc1 | inactive |
| COCc1nnc(NC(=O)c2ccc(S(=O)(=O)N(CC(C)C)CC(C)C)cc2)o1 | inconclusive: 13.5 µM [inhibitor, partial curve] |
